{"source": "the supplement of paper PMC8728848", "binders": {"B1": {"name": "GS13846A-bth-444-19-444 (Bacteroides thetaiotaomicron) (protein)", "chain": "SCENEFDVSDKADSLISVTVNTLNNQAAYNVGETAQAELWIQRGGLKDASGKVQFVVDPLLLDSLNQEDKTNYELLPENCYEMTNTEFTVDKNELCGYITYHPEKILALSAYNETKYVLPLRLISNDLAINPARNTSFLAFTILEPIVHISNAGVYNINPDLTSTMDIQIGVPFTNKWDILCNLTEDLSLIDEYNQINKVNFTLLPENAYTAPESVTLQEGVSQITASYQLKNNLVPGNYILPIKIGSITASQGGVPNNSLVIDEESNVLFCIVKEGNKINKSGWEVIECSSEHAGNEATYMIDDNESTYWHCKFKNEAGSSVPPFHFIIDMKKEITIAQIDLLNRGDGAANNIKWVEFYASNNNSEWDKIGAGDFNDEGTRATFRYYVKSTKARYLKLIIPEGYGNNCPPAAIRELTVYGLEGNN"}}, "experiment_in_all_cases": "glycan array binding signal (z-score within array); higher = stronger binding", "settings_in_all_cases": "glycan notation: IUPAC condensed, linker removed", "key": {"[1]": {"biological_target": "Gal(b1-4)GlcNAc(b1-3)Gal(b1-4)Glc", "how_it_was_run": "(§1)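 Glycan array binding is given as a within-array Z-score, which can be read as non-binding when negative. The arrays, 3228 of them, came from the Consortium for Functional Glycomics database and were retained only where the protein sequence was available. Z-scores were averaged across arrays of the same protein sequence at different concentrations or buffers and across linkers.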"}, "[2]": {"biological_target": "Gal(b1-4)GlcNAc(b1-3)Gal(b1-4)GlcNAc", "how_it_was_run": "as §1"}, "[3]": {"biological_target": "Gal(b1-4)GlcNAc(b1-3)Gal(b1-4)GlcNAc(b1-2)Man(a1-3)[Gal(b1-4)GlcNAc(b1-3)Gal(b1-4)GlcNAc(b1-2)Man(a1-6)]Man(b1-4)GlcNAc(b1-4)GlcNAc", "how_it_was_run": "as §1"}, "[4]": {"biological_target": "Gal(b1-4)GlcNAc(b1-3)Gal(b1-4)GlcNAc(b1-2)Man(a1-3)[Gal(b1-4)GlcNAc(b1-3)Gal(b1-4)GlcNAc(b1-2)Man(a1-6)]Man(b1-4)GlcNAc(b1-4)[Fuc(a1-6)]GlcNAc", "how_it_was_run": "as §1"}, "[5]": {"biological_target": "Gal(b1-4)GlcNAc(b1-3)Gal(b1-4)GlcNAc(b1-2)[Gal(b1-4)GlcNAc(b1-3)Gal(b1-4)GlcNAc(b1-6)]Man(a1-6)[Gal(b1-4)GlcNAc(b1-3)Gal(b1-4)GlcNAc(b1-2)Man(a1-3)]Man(b1-4)GlcNAc(b1-4)GlcNAc", "how_it_was_run": "as §1"}, "[6]": {"biological_target": "Gal(b1-4)GlcNAc(b1-3)Gal(b1-4)GlcNAc(b1-2)[Gal(b1-4)GlcNAc(b1-3)Gal(b1-4)GlcNAc(b1-6)]Man(a1-6)[Gal(b1-4)GlcNAc(b1-3)Gal(b1-4)GlcNAc(b1-2)Man(a1-3)]Man(b1-4)GlcNAc(b1-4)[Fuc(a1-6)]GlcNAc", "how_it_was_run": "as §1"}, "[7]": {"biological_target": "Gal(b1-4)GlcNAc(b1-3)Gal(b1-4)GlcNAc(b1-3)Gal(b1-4)GlcNAc", "how_it_was_run": "as §1"}, "[8]": {"biological_target": "Gal(b1-4)GlcNAc(b1-3)Gal(b1-4)GlcNAc(b1-3)Gal(b1-4)GlcNAc(b1-2)Man(a1-3)[Gal(b1-4)GlcNAc(b1-3)Gal(b1-4)GlcNAc(b1-3)Gal(b1-4)GlcNAc(b1-2)Man(a1-6)]Man(b1-4)GlcNAc(b1-4)GlcNAc", "how_it_was_run": "as §1"}, "[9]": {"biological_target": "Gal(b1-4)GlcNAc(b1-3)Gal(b1-4)GlcNAc(b1-3)Gal(b1-4)GlcNAc(b1-2)Man(a1-3)[Gal(b1-4)GlcNAc(b1-3)Gal(b1-4)GlcNAc(b1-3)Gal(b1-4)GlcNAc(b1-2)Man(a1-6)]Man(b1-4)GlcNAc(b1-4)[Fuc(a1-6)]GlcNAc", "how_it_was_run": "as §1"}, "[10]": {"biological_target": "Gal(b1-4)GlcNAc(b1-3)Gal(b1-4)GlcNAc(b1-3)Gal(b1-4)GlcNAc(b1-2)[Gal(b1-4)GlcNAc(b1-3)Gal(b1-4)GlcNAc(b1-3)Gal(b1-4)GlcNAc(b1-6)]Man(a1-6)[Gal(b1-4)GlcNAc(b1-3)Gal(b1-4)GlcNAc(b1-3)Gal(b1-4)GlcNAc(b1-2)Man(a1-3)]Man(b1-4)GlcNAc(b1-4)[Fuc(a1-6)]GlcNAc", "how_it_was_run": "as §1"}, "[11]": {"biological_target": "Gal(b1-4)GlcNAc(b1-3)Gal(b1-4)GlcNAc(b1-3)Gal(b1-4)GlcNAc(b1-3)Gal(b1-4)GlcNAc(b1-2)Man(a1-3)[Gal(b1-4)GlcNAc(b1-3)Gal(b1-4)GlcNAc(b1-3)Gal(b1-4)GlcNAc(b1-3)Gal(b1-4)GlcNAc(b1-2)Man(a1-6)]Man(b1-4)GlcNAc(b1-4)GlcNAc", "how_it_was_run": "as §1"}, "[12]": {"biological_target": "Gal(b1-4)GlcNAc(b1-3)Gal(b1-4)GlcNAc(b1-3)Gal(b1-4)GlcNAc(b1-3)Gal(b1-4)GlcNAc(b1-2)Man(a1-3)[Gal(b1-4)GlcNAc(b1-3)Gal(b1-4)GlcNAc(b1-3)Gal(b1-4)GlcNAc(b1-3)Gal(b1-4)GlcNAc(b1-2)Man(a1-6)]Man(b1-4)GlcNAc(b1-4)[Fuc(a1-6)]GlcNAc", "how_it_was_run": "as §1"}, "[13]": {"biological_target": "Gal(b1-4)GlcNAc(b1-3)Gal(b1-4)GlcNAc(b1-3)Gal(b1-4)GlcNAc(b1-3)Gal(b1-4)GlcNAc(b1-2)[Gal(b1-4)GlcNAc(b1-3)Gal(b1-4)GlcNAc(b1-3)Gal(b1-4)GlcNAc(b1-3)Gal(b1-4)GlcNAc(b1-6)]Man(a1-6)[Gal(b1-4)GlcNAc(b1-3)Gal(b1-4)GlcNAc(b1-3)Gal(b1-4)GlcNAc(b1-3)Gal(b1-4)GlcNAc(b1-2)Man(a1-3)]Man(b1-4)GlcNAc(b1-4)[Fuc(a1-6)]GlcNAc", "how_it_was_run": "as §1"}, "[14]": {"biological_target": "Gal(b1-4)GlcNAc(b1-3)Gal(b1-4)GlcNAc(b1-3)Gal(b1-4)GlcNAc(b1-3)Gal(b1-4)GlcNAc(b1-3)Gal(b1-4)GlcNAc(b1-2)Man(a1-3)[Gal(b1-4)GlcNAc(b1-3)Gal(b1-4)GlcNAc(b1-3)Gal(b1-4)GlcNAc(b1-3)Gal(b1-4)GlcNAc(b1-3)Gal(b1-4)GlcNAc(b1-2)Man(a1-6)]Man(b1-4)GlcNAc(b1-4)GlcNAc", "how_it_was_run": "as §1"}, "[15]": {"biological_target": "Gal(b1-4)GlcNAc(b1-3)Gal(b1-4)GlcNAc(b1-3)Gal(b1-4)GlcNAc(b1-3)Gal(b1-4)GlcNAc(b1-3)Gal(b1-4)GlcNAc(b1-2)Man(a1-3)[Gal(b1-4)GlcNAc(b1-3)Gal(b1-4)GlcNAc(b1-3)Gal(b1-4)GlcNAc(b1-3)Gal(b1-4)GlcNAc(b1-3)Gal(b1-4)GlcNAc(b1-2)Man(a1-6)]Man(b1-4)GlcNAc(b1-4)[Fuc(a1-6)]GlcNAc", "how_it_was_run": "as §1"}, "[16]": {"biological_target": "Gal(b1-4)GlcNAc(b1-3)Gal(b1-4)GlcNAc(b1-3)Gal(b1-4)GlcNAc(b1-3)Gal(b1-4)GlcNAc(b1-3)Gal(b1-4)GlcNAc(b1-2)[Gal(b1-4)GlcNAc(b1-3)Gal(b1-4)GlcNAc(b1-3)Gal(b1-4)GlcNAc(b1-3)Gal(b1-4)GlcNAc(b1-3)Gal(b1-4)GlcNAc(b1-6)]Man(a1-6)[Gal(b1-4)GlcNAc(b1-3)Gal(b1-4)GlcNAc(b1-3)Gal(b1-4)GlcNAc(b1-3)Gal(b1-4)GlcNAc(b1-3)Gal(b1-4)GlcNAc(b1-2)Man(a1-3)]Man(b1-4)GlcNAc(b1-4)[Fuc(a1-6)]GlcNAc", "how_it_was_run": "as §1"}, "[17]": {"biological_target": "Gal(b1-4)GlcNAc(b1-3)Gal(b1-4)GlcNAc(b1-3)Gal(b1-4)GlcNAc(b1-3)Gal(b1-4)GlcNAc(b1-3)Gal(b1-4)GlcNAc(b1-3)Gal(b1-4)GlcNAc(b1-2)Man(a1-3)[Gal(b1-4)GlcNAc(b1-3)Gal(b1-4)GlcNAc(b1-3)Gal(b1-4)GlcNAc(b1-3)Gal(b1-4)GlcNAc(b1-3)Gal(b1-4)GlcNAc(b1-3)Gal(b1-4)GlcNAc(b1-2)Man(a1-6)]Man(b1-4)GlcNAc(b1-4)GlcNAc", "how_it_was_run": "as §1"}, "[18]": {"biological_target": "Gal(b1-4)GlcNAc(b1-3)Gal(b1-4)GlcNAc(b1-3)GalNAc", "how_it_was_run": "as §1"}, "[19]": {"biological_target": "Gal(b1-4)GlcNAc(b1-3)Gal(b1-4)GlcNAc(b1-3)[Gal(b1-4)GlcNAc(b1-3)Gal(b1-4)GlcNAc(b1-6)]GalNAc", "how_it_was_run": "as §1"}}, "note": "The list shows a part of the results."}
{"binder": "B1", "values": [{"measurement": "glycan array binding signal (z-score)", "setting": "[1]", "value": -0.345}, {"measurement": "glycan array binding signal (z-score)", "setting": "[2]", "value": -0.407}, {"measurement": "glycan array binding signal (z-score)", "setting": "[3]", "value": -0.33}, {"measurement": "glycan array binding signal (z-score)", "setting": "[4]", "value": 0.16}, {"measurement": "glycan array binding signal (z-score)", "setting": "[5]", "value": 0.071}, {"measurement": "glycan array binding signal (z-score)", "setting": "[6]", "value": 1.74}, {"measurement": "glycan array binding signal (z-score)", "setting": "[7]", "value": -0.124}, {"measurement": "glycan array binding signal (z-score)", "setting": "[8]", "value": 0.954}, {"measurement": "glycan array binding signal (z-score)", "setting": "[9]", "value": 0.103}, {"measurement": "glycan array binding signal (z-score)", "setting": "[10]", "value": -0.112}, {"measurement": "glycan array binding signal (z-score)", "setting": "[11]", "value": 0.105}, {"measurement": "glycan array binding signal (z-score)", "setting": "[12]", "value": 0.486}, {"measurement": "glycan array binding signal (z-score)", "setting": "[13]", "value": 0.226}, {"measurement": "glycan array binding signal (z-score)", "setting": "[14]", "value": 0.056}, {"measurement": "glycan array binding signal (z-score)", "setting": "[15]", "value": 0.007}, {"measurement": "glycan array binding signal (z-score)", "setting": "[16]", "value": 0.472}, {"measurement": "glycan array binding signal (z-score)", "setting": "[17]", "value": 0.691}, {"measurement": "glycan array binding signal (z-score)", "setting": "[18]", "value": -0.139}, {"measurement": "glycan array binding signal (z-score)", "setting": "[19]", "value": 0.372}]}
